The sample as a whole holds a higher share of the strongest signals than the screen did.
Tests used:
Experiment in all cases: glycan array binding signal (z-score within array); higher = stronger binding
Details in all cases: glycan notation: IUPAC condensed, linker removed
[1] = biological target: Fuc(a1-2)Gal(b1-3)GlcNAc(b1-3)GalNAc
Method in brief: (§1)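 Glycan array binding is given as a within-array Z-score, which can be read as non-binding when negative. The arrays, 3228 of them, came from the Consortium for Functional Glycomics database and were retained only where the protein sequence was available. Z-scores were averaged across arrays of the same protein sequence at different concentrations or buffers and across linkers.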

[2] = biological target: Fuc(a1-2)Gal(b1-4)GlcNAc(b1-2)[Fuc(a1-2)Gal(b1-4)GlcNAc(b1-4)]Man(a1-3)[Fuc(a1-2)Gal(b1-4)GlcNAc(b1-2)Man(a1-6)]Man(b1-4)GlcNAc(b1-4)GlcNAc
Method in brief: as §1

[3] = biological target: Fuc(a1-2)[Gal(a1-3)]Gal(b1-3)GlcNAc
Method in brief: as §1

[4] = biological target: Fuc(a1-2)[GalNAc(a1-3)]Gal(b1-3)GlcNAc(b1-2)Man(a1-3)[Fuc(a1-2)[GalNAc(a1-3)]Gal(b1-3)GlcNAc(b1-2)Man(a1-6)]Man(b1-4)GlcNAc(b1-4)GlcNAc
Method in brief: as §1

[5] = biological target: Fuc(a1-2)[GalNAc(a1-3)]Gal(b1-4)GlcNAc(b1-2)Man
Method in brief: as §1

[6] = biological target: Fuc(a1-2)[GalNAc(a1-3)]Gal(b1-4)GlcNAc(b1-2)Man(a1-3)[Fuc(a1-2)[GalNAc(a1-3)]Gal(b1-4)GlcNAc(b1-2)Man(a1-6)]Man(b1-4)GlcNAc(b1-4)GlcNAc
Method in brief: as §1

[7] = biological target: Fuc(a1-2)[GalNAc(a1-3)]Gal(b1-4)GlcNAc(b1-3)Gal(b1-4)GlcNAc
Method in brief: as §1

[8] = biological target: Fuc(a1-2)[GalNAc(a1-3)]Gal(b1-4)GlcNAc(b1-3)GalNAc
Method in brief: as §1

[9] = biological target: Fuc(a1-2)[GalNAc(a1-3)]Gal(b1-4)GlcNAc(b1-6)GalNAc
Method in brief: as §1

[10] = biological target: Fuc(a1-2)[GalNAc(b1-3)]Gal
Method in brief: as §1

Fuc(a1-3)GlcNAc = biological target: Fuc(a1-3)GlcNAc
Method in brief: as §1

[11] = biological target: Fuc(a1-3)[Gal3S(b1-4)]GlcNAc
Method in brief: as §1

[12] = biological target: Gal(a1-3)Gal(b1-4)GlcNAc(b1-2)Man
Method in brief: as §1

[13] = biological target: Gal(a1-3)Gal(b1-4)GlcNAc(b1-6)GalNAc
Method in brief: as §1

[14] = biological target: Gal(a1-4)Gal(b1-4)GlcNAc(b1-3)Gal(b1-4)Glc
Method in brief: as §1

Gal(b1-2)Gal = biological target: Gal(b1-2)Gal
Method in brief: as §1

[15] = biological target: Gal(b1-3)GlcNAc(a1-6)Gal(b1-4)GlcNAc
Method in brief: as §1

[16] = biological target: Gal(b1-3)[Fuc(a1-4)]GlcNAc(b1-2)Man
Method in brief: as §1

[17] = biological target: Gal(b1-3)[Fuc(a1-4)]GlcNAc(b1-3)Gal(b1-3)[Fuc(a1-4)]GlcNAc
Method in brief: as §1

[18] = biological target: Gal(b1-4)GlcNAc(b1-2)[Gal(b1-4)GlcNAc(b1-4)]Man(a1-3)[Gal(b1-4)GlcNAc(b1-2)Man(a1-6)]Man(b1-4)GlcNAc(b1-4)GlcNAc
Method in brief: as §1

[19] = biological target: Gal(b1-4)GlcNAc(b1-2)[Gal(b1-4)GlcNAc(b1-6)]Man(a1-6)[GlcNAc(b1-4)][Gal(b1-4)GlcNAc(b1-2)Man(a1-3)]Man(b1-4)GlcNAc(b1-4)GlcNAc
Method in brief: as §1

[20] = biological target: Gal(b1-4)GlcNAc(b1-3)Gal(b1-3)GalNAc
Method in brief: as §1

[21] = biological target: Gal(b1-4)GlcNAc(b1-3)Gal(b1-4)GlcNAc(b1-3)Gal(b1-4)GlcNAc(b1-3)Gal(b1-4)GlcNAc(b1-3)Gal(b1-4)GlcNAc(b1-2)Man(a1-3)[Gal(b1-4)GlcNAc(b1-3)Gal(b1-4)GlcNAc(b1-3)Gal(b1-4)GlcNAc(b1-3)Gal(b1-4)GlcNAc(b1-3)Gal(b1-4)GlcNAc(b1-2)Man(a1-6)]Man(b1-4)GlcNAc(b1-4)GlcNAc
Method in brief: as §1

B1: mASGPR (Macaca mulatta) (protein)
chain: GASSQNSKFQRDLVTLRTDFSNFTSNTVAEIQALTSQGSSVEEMIASLKAEVEVIKQEQQAVHSEMLLRVQRLMQDLNKLTCQVATLKNNASTERTCCPVNWVEHQDSCYWFSRSGMPWAEAEKHCQLENAHLVVINSREEQNFVQEHLSFAYTWMGLSDREGAWKWVDGTDYETGFQNWKPGQPDDWQGHGLGGGEDCAHFHPDGRWNDDVCQRPYYWVCEAGLTQASQESHT[in this place human IgG1 Fc]
glycan array binding signal (z-score) [1]: -0.506 | glycan array binding signal (z-score) [2]: 0.141 | glycan array binding signal (z-score) [3]: 0.419 | glycan array binding signal (z-score) [4]: 2.52 | glycan array binding signal (z-score) [5]: 2.1 | glycan array binding signal (z-score) [6]: 2.53 | glycan array binding signal (z-score) [7]: 1.98 | glycan array binding signal (z-score) [8]: 1.49 | glycan array binding signal (z-score) [9]: 2.48 | glycan array binding signal (z-score) [10]: 2.51 | glycan array binding signal (z-score) (Fuc(a1-3)GlcNAc): -0.584 | glycan array binding signal (z-score) [11]: -0.254 | glycan array binding signal (z-score) [12]: -0.493 | glycan array binding signal (z-score) [13]: 2.73 | glycan array binding signal (z-score) [14]: -0.635 | glycan array binding signal (z-score) (Gal(b1-2)Gal): 0.251 | glycan array binding signal (z-score) [15]: 0.154 | glycan array binding signal (z-score) [16]: 1.53 | glycan array binding signal (z-score) [17]: -0.325 | glycan array binding signal (z-score) [18]: -0.794 | glycan array binding signal (z-score) [19]: -0.263 | glycan array binding signal (z-score) [20]: -0.77 | glycan array binding signal (z-score) [21]: 0.03

Reference: the supplement of paper PMC8728848
